Screen size: about 310,000 compounds; about 2,200 (0.71%) showed an effect of 50% or more. The effect is printed as a negative number. This is one part of the list.
The molecules below were run against human ether-à-go-go-related gene (hERG) potassium channel (human, UniProt Q12809) (assay: primary screen, population patch clamp on CHO cells stably expressing hERG).
human ether-à-go-go-related gene (hERG) potassium channel, sequence (Q12809 whole entry, looked up): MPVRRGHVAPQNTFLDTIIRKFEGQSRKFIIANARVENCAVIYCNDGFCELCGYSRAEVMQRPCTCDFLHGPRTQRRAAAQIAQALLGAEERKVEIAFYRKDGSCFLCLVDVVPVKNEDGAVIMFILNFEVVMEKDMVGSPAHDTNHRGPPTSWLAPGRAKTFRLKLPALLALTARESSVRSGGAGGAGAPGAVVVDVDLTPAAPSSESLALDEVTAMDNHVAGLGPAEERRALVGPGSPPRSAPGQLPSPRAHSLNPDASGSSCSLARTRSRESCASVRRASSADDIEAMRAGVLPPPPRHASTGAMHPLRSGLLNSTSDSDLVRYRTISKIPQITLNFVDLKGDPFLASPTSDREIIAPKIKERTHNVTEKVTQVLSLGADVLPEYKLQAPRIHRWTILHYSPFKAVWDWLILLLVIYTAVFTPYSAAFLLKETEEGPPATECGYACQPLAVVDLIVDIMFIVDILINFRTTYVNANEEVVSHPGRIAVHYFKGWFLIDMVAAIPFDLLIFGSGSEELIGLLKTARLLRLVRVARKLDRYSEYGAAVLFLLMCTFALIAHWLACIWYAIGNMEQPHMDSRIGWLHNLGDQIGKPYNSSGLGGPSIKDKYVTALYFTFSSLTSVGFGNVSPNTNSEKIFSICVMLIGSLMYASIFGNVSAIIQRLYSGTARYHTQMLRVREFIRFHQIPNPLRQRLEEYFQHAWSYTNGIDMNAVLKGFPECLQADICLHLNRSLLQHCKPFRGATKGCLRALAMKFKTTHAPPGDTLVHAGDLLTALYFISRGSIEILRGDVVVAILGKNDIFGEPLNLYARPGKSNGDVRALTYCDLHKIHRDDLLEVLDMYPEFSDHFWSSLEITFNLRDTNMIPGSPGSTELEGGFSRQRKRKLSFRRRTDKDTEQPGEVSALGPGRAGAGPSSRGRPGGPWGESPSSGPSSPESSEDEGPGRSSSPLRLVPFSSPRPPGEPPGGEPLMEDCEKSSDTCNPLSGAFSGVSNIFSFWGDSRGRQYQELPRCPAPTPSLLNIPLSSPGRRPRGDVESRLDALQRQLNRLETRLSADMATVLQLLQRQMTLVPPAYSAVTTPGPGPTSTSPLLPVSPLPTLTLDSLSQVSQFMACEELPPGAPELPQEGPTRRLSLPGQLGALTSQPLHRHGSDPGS
With `Cc1cc(=O)[nH]c2c(C)cc(S(=O)(=O)N3CCOCC3)cc12` the “hERG current change (%, negative = inhibition) at 1uM” value was 12%. `COC(=O)C1=C(C)N(CCc2ccc(OC)c(OC)c2)C(=O)/C1=C\N(C)C` was tested, and the “hERG current change (%, negative = inhibition) at 1uM” value was 5.97%. `Cc1cc2c(ccc3[nH]onc32)n1` was tested, and the “hERG current change (%, negative = inhibition) at 1uM” value was 16.3%. `CC(C)Oc1ccccc1/C=N/n1nnnc1N` was tested, and the “hERG current change (%, negative = inhibition) at 1uM” value was 10.6%. With `COC(=O)CCCCC1SCC2NC(=O)NC21O` (centres unmarked) the “hERG current change (%, negative = inhibition) at 1uM” value was 11.4%. With `O=C(Nc1cccnc1)c1cccnc1` the “hERG current change (%, negative = inhibition) at 1uM” value was 16.4%. `CSc1nnc2n(-c3ccccc3)c(=O)c3c4c(sc3n12)CCC4` was tested, and the “hERG current change (%, negative = inhibition) at 1uM” value was -2.71%. With `CC1CCN(Cc2ccc(-c3nn[nH]n3)cc2)CC1` the “hERG current change (%, negative = inhibition) at 1uM” value was 20.5%. With `CNc1nc(-c2ccc(Cl)cc2)cs1` the “hERG current change (%, negative = inhibition) at 1uM” value was 11.2%. With `CC(C)(C)NS(=O)(=O)c1ccc(NC(=O)C2CC(=O)N(CCc3ccc(F)cc3)C2)cc1` (centres unmarked) the “hERG current change (%, negative = inhibition) at 1uM” value was 8.69%. `O=C(O)c1cc2nccc(-c3ccco3)n2n1` was tested, and the “hERG current change (%, negative = inhibition) at 1uM” value was 8.26%. For `O=C1c2oc3ccc(Br)cc3c(=O)c2C(c2cccc(F)c2)N1CCO` (centres unmarked), the “hERG current change (%, negative = inhibition) at 1uM” value was 13%. With `O=C(COC(=O)Cc1cn2ccsc2n1)Nc1nc2ccccc2s1` the “hERG current change (%, negative = inhibition) at 1uM” value was 11.5%. In the case of `CCCCNC(=S)N/N=C/c1cc(C)ccc1C`, the “hERG current change (%, negative = inhibition) at 1uM” value is reported as 2.76%. With `C[C@]12CCC3c4ccc(OCC(=O)O)cc4CCC3C1CCC2=O` (some centres unmarked) the “hERG current change (%, negative = inhibition) at 1uM” value was 12.9%. With `OCCC1CN(Cc2cc(F)ccc2-n2cccn2)CCN1Cc1ccc(F)cc1` (centres unmarked) the “hERG current change (%, negative = inhibition) at 1uM” value was -36.9%. With `CC(C)(C)c1ccc(C2C(C(=O)c3ccco3)=C(O)C(=O)N2CC2CCCO2)cc1` (centres unmarked) the “hERG current change (%, negative = inhibition) at 1uM” value was 15.1%. For `CC(C)c1ccc(NC(=O)C(c2ccccc2)N2CCN(C(=O)c3ccco3)CC2)cc1` (centres unmarked), the “hERG current change (%, negative = inhibition) at 1uM” value was 11.3%. `CC(=O)c1cccc(NC(=O)c2ccc3c(=O)n4c(nc3c2)CCCCC4)c1` was tested, and the “hERG current change (%, negative = inhibition) at 1uM” value was -39.1%. For `CC(=O)c1ccc(OCC(O)CN2CCN(Cc3ccc4c(c3)OCO4)CC2)cc1` (centres unmarked), the “hERG current change (%, negative = inhibition) at 1uM” value was -12%. `COCCNC(=S)NNC(=O)c1ccco1` was tested, and the “hERG current change (%, negative = inhibition) at 1uM” value was 0.561%. In the case of `CC(=O)Nc1ccc(N2CCN(Cc3ccccc3)CC2)cc1`, the “hERG current change (%, negative = inhibition) at 1uM” value is reported as 2.6%. `COc1ccc(C(=O)CCC(=O)NCc2cc(OC)cc(OC)c2)cc1` was tested, and the “hERG current change (%, negative = inhibition) at 1uM” value was 23.4%. For `Cc1ccnc(NS(=O)(=O)c2ccc(NC(=O)CN3C(=O)CCC3=O)cc2)n1`, the “hERG current change (%, negative = inhibition) at 1uM” value was 4.33%. In the case of `CCN1CCc2nc(NC(=O)c3ccc4c(c3)OCCO4)sc2C1`, the “hERG current change (%, negative = inhibition) at 1uM” value is reported as 6.09%. For `CCN(CC)C(=O)c1ccc(S(=O)(=O)c2ccccc2)cc1`, the “hERG current change (%, negative = inhibition) at 1uM” value was 16.8%. With `Cc1[nH]c2ccccc2c1C(=O)C(=O)NCCC1=CCCCC1` the “hERG current change (%, negative = inhibition) at 1uM” value was 8.43%. In the case of `CCN(CC)C(=O)CN(c1cccc(OC)c1)S(=O)(=O)c1ccc(C)cc1`, the “hERG current change (%, negative = inhibition) at 1uM” value is reported as 13.2%. With `Cc1ccc(C(=O)NCc2ccco2)cc1` the “hERG current change (%, negative = inhibition) at 1uM” value was 15.8%. With `CSc1ccccc1C(=O)C1CCCN(C(=O)CCc2cccnc2)C1` (centres unmarked) the “hERG current change (%, negative = inhibition) at 1uM” value was 8.69%. For `Cn1cc([N+](=O)[O-])c(C(=O)N/N=C/c2ccccc2)n1`, the “hERG current change (%, negative = inhibition) at 1uM” value was 8.41%. In the case of `CCCN(CCC)C(=O)C1CCN(c2ccc(S(=O)(=O)N3CCOCC3)cc2[N+](=O)[O-])CC1`, the “hERG current change (%, negative = inhibition) at 1uM” value is reported as -3.56%. `C=CCOc1ccccc1CN1CCSCC1` was tested, and the “hERG current change (%, negative = inhibition) at 1uM” value was -1.02%. In the case of `NC(=S)N/N=C/c1ccc2c(c1)OCCO2`, the “hERG current change (%, negative = inhibition) at 1uM” value is reported as 13.7%. For `O=C(Cn1cnc2c(oc3nc4c(cc32)CCCC4)c1=O)Nc1cccc(Cl)c1`, the “hERG current change (%, negative = inhibition) at 1uM” value was 9.78%. For `O=C(O)C(F)=C1c2ccccc2-c2ccccc21`, the “hERG current change (%, negative = inhibition) at 1uM” value was 14.5%. For `CC(C)Oc1ccc(CSc2nnc3n(C)c(=O)c4c5c(sc4n23)CCCC5)cc1`, the “hERG current change (%, negative = inhibition) at 1uM” value was 0.037%. `COc1cccc(C(=O)NCCS(=O)(=O)NCc2ccc3c(c2)OCO3)c1` was tested, and the “hERG current change (%, negative = inhibition) at 1uM” value was 3.34%. For `COc1ccc(C[C@H]2COC(=O)[C@@H]2Cc2ccc(OC3OC(CO)C(O)C(O)C3O)c(OC)c2)cc1OC` (some centres unmarked), the “hERG current change (%, negative = inhibition) at 1uM” value was 15.4%. In the case of `CC(=O)c1ccc(N2CCN(C(=O)Cn3cnc(S(=O)(=O)N4CCCCC4)c3)CC2)cc1`, the “hERG current change (%, negative = inhibition) at 1uM” value is reported as 8.27%. With `CC1(C)OC(=O)C(=CNC(Cc2c[nH]c3ccccc23)C(=O)O)C(=O)O1` (centres unmarked) the “hERG current change (%, negative = inhibition) at 1uM” value was 12.2%. In the case of `CCc1ccc(CNC(=O)C2CCN(c3nnc(C)c4c(C)n(-c5ccc(C)cc5)nc34)CC2)cc1`, the “hERG current change (%, negative = inhibition) at 1uM” value is reported as 11.6%. With `O=C(O)c1csc(Cc2ccccc2)n1` the “hERG current change (%, negative = inhibition) at 1uM” value was 9.37%. With `NC(=O)c1nn(CC(=O)Nc2cccc(S(=O)(=O)N3CCCC3)c2)c(=O)c2ccccc12` the “hERG current change (%, negative = inhibition) at 1uM” value was 7.71%.

From article PMC4336329 (PLoS ONE, 2015)
